Measured values: US20220363731A1 (LETO LABORATORIES, published 2022)

Tests used:
IL2Rβγ-Fc [1] = biological target: T1, IL2Rβγ-Fc (UniProt P14784 27-240; P31785 23-262, limits assumed); assay: BLI (Fortebio Octet RED96), IL2Rβγ-Fc loaded on ProA sensor, analyte 2.5-40 nM as labelled; R2 0.9926
T1 construct: From Beijing Zhidao Biotechnology, loaded on ProA sensors; also called IL2Rβγ receptors; complex of β and γ receptor subunits; not shown: Fc
T1 sequence (looked up) 1: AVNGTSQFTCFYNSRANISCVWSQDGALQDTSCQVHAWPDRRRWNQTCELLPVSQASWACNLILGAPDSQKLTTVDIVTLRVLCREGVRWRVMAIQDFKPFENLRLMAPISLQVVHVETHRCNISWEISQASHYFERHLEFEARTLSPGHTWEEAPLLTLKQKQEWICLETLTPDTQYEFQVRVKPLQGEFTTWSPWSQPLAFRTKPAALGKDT
T1 sequence (looked up) 2: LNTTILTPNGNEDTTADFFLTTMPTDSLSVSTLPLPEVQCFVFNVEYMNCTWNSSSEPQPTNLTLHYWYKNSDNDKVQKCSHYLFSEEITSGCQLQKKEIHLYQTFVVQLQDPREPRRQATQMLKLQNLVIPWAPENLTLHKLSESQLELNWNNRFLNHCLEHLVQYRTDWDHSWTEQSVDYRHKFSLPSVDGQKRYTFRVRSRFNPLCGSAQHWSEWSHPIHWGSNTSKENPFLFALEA
Method: (§1) IL2Rβγ-Fc was diluted with the buffer solution to a concentration of 10 μg/mL, and then added to column 2 of the 96-well assay plate. The program was set to Loading, 600 s.
(§2) They were added to columns 5-9 of the 96-well assay plate, respectively. The program was set to Association, 200 s. The buffers were added to columns 1, 4, 10 and 11 of the 96-well assay plate, and the glycine with pH 1.7 was added to column 12. The loading volume of the above samples or solutions was 200 μL.
(§3) 8 ProA sensors were respectively placed in A-H of column 1 of the sensor holder. In the software Data acquisition 11.0, the detection conditions were set as follows. 1 Pre-wetting: Baseline, 60 s, Position: Column 1. 2 Cycle detection: column 2: loading, 600 s; column 4: Baseline 1, 60 s; columns 5-9: Association, 200 s; column 10: Dissociation, 600 s; column 11: neutralization; and column 12: regeneration.

IL2Rβγ-Fc [2] = biological target: T1, IL2Rβγ-Fc; assay: BLI (Fortebio Octet RED96), IL2Rβγ-Fc loaded on ProA sensor, analyte 1.25-40 nM; R2 0.9985
Method: as §1, §2, §3

IL2Rβγ-Fc [3] = biological target: T1, IL2Rβγ-Fc; assay: BLI (Fortebio Octet RED96), IL2Rβγ-Fc loaded on ProA sensor, analyte 1.25-40 nM; R2 0.9982
Method: The buffer formulation was as follows: 10 mM HEPES, 150 mM sodium chloride, 3 mM EDTA, 0.1% BSA and 0.05% Tween 20. The ProA sensor was purchased from Pall Fortebio (Cat. No. #18-5010). The HISIK sensor was purchased from Pall Fortebio (Cat. No. #18-5120). The BLI equipment was Octet RED96 from Pall Fortebio. Data acquisition and analysis were carried out using software Data acquisition 11.0 and Data Analysis 11.0, respectively.
as §1, §3

B1: IL-2 Complex 1: IL-2 (C125A, T41C) Pair 1 with CD25-ECD (N27C) Pair 1 (other)
chain 1: [omitted - about 150 residues]
chain 2: ELCDDDPPEIPHATFKAMAYKEGTMLCCECKRGFRRIKSGSLYMLCTGNSSHSSWDNQCQCTSSATRNTTKQVTPQPEEQKERKTTEMQSPMQPVDQASLPGHCREPPPWENEATERIYHFVVGQMVYYQCVQGYRALHRGPAESVCKMTHGKTRWTQPQLICTG
notes: IL-2/CD25-ECD heterodimer from co-expression in HEK293, designed to be joined by an intermolecular disulfide bond between IL-2 Cys41 and CD25-ECD Cys27
With B1 the Kd (IL2Rβγ-Fc [1]) was 517 pM.

B2: IL-2 Complex 2: IL-2 (C125A, P34C) Pair 2 with CD25-ECD (D4C) Pair 2 (other)
chain 1: [omitted - about 150 residues]
chain 2: ELCCDDPPEIPHATFKAMAYKEGTMLNCECKRGFRRIKSGSLYMLCTGNSSHSSWDNQCQCTSSATRNTTKQVTPQPEEQKERKTTEMQSPMQPVDQASLPGHCREPPPWENEATERIYHFVVGQMVYYQCVQGYRALHRGPAESVCKMTHGKTRWTQPQLICTG
notes: IL-2/CD25-ECD heterodimer from co-expression in HEK293, designed to be joined by an intermolecular disulfide bond between IL-2 Cys34 and CD25-ECD Cys4
Binder B2 has a Kd (IL2Rβγ-Fc [2]) of 308 pM.

B3: IL-2 Complex 4: IL-2 (C125A, Y45C) Pair 4 with CD25-ECD (R35C) Pair 4 (other)
chain 1: [omitted - about 150 residues]
chain 2: ELCDDDPPEIPHATFKAMAYKEGTMLNCECKRGFCRIKSGSLYMLCTGNSSHSSWDNQCQCTSSATRNTTKQVTPQPEEQKERKTTEMQSPMQPVDQASLPGHCREPPPWENEATERIYHFVVGQMVYYQCVQGYRALHRGPAESVCKMTHGKTRWTQPQLICTG
notes: IL-2/CD25-ECD heterodimer from co-expression in HEK293, designed to be joined by an intermolecular disulfide bond between IL-2 Cys45 and CD25-ECD Cys35
Binder B3 has a Kd (IL2Rβγ-Fc [3]) of 253 pM.
